These results are taken from patent publication US20230192795A1 (Hoffmann-La Roche, published 2023).

In general, koff refers to the first-order rate constant of dissociation. As a reminder, the Kd is a measure of binding affinity in units of concentration. Usually kon stands for the rate constant with which the complex forms.

Assay [1] concerns the target T1, IL-7Rα/IL-2Rγ on human T cells (human, UniProt P16871 21-459; P31785 23-369).
T1 sequence (looked up) 1: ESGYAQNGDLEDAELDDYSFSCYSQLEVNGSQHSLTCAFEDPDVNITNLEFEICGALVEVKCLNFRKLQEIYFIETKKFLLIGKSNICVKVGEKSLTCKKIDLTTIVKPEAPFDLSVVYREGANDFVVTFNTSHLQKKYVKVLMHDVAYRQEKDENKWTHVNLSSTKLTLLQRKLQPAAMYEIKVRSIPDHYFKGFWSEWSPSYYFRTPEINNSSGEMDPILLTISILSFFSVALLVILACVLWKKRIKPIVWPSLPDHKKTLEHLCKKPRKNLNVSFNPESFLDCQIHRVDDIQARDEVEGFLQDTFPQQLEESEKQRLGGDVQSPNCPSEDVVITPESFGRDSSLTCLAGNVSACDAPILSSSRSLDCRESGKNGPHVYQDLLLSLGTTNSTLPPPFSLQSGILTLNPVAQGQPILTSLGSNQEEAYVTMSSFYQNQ
T1 sequence (looked up) 2: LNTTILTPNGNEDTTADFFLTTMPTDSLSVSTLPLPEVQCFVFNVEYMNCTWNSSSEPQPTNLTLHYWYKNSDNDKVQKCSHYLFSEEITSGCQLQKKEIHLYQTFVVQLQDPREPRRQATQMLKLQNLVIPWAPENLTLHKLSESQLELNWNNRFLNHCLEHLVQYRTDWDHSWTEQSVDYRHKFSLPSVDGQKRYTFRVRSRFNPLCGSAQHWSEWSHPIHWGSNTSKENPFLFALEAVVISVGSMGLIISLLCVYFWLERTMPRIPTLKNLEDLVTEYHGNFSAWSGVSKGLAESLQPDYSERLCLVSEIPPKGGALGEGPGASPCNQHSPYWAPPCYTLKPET
Briefly: cell-based or functional assay.

The target in assay [2] is human PD-1 on T cells (human, UniProt Q15116 25-288). Briefly: cell-based or functional assay.
UniProt Q15116, sequence (Q15116 25-288 limits assumed): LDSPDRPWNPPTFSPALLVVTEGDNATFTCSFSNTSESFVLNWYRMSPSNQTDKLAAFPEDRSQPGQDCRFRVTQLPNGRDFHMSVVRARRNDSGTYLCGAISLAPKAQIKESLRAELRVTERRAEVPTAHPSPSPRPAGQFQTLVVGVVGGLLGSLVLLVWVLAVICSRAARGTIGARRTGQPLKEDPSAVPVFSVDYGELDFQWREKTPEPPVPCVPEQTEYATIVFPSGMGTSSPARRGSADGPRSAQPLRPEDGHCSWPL
Assay [3] deals with T2, Human IL7Ra-IL2Rγ-Fc heterodimer (human, biotin on the avi tag).
T2 construct: Extracellular domains of IL-7Ralpha and IL-2Rgamma fused to Fc knob and Fc hole; also called hu IL7Ra-IL2Rγ-Fc avi biotin; human IL7Ra-IL2Rg-Fc biotin
Nature of the assay: SPR, captured from supernatant, 800 nM receptor-Fc single injection. The method in brief:
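PDI-IL7 constructs were captured from supernatant (100 nM, 120 s) on anti-Fc CM5 surfaces in HBS-EP+ pH 7.4; 800 nM HEK-produced extracellular-domain receptor-Fc heterodimer was injected once (240 s association, 360 s dissociation). Binding/capture ratio recorded; koff from single-curve fit of dissociation, reference-subtracted.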
(In general: Surface plasmon resonance follows binding to a sensor surface in real time, without labels.)

The target of assay [4] is T2, Human IL7Ra-IL2Rγ-Fc heterodimer. Described as above. The method, then: Surface Plasmon Resonacne (SPR) experiments were performed on a Biacore T200 with HBS-EP+ as running buffer (0.01 M HEPES pH 7.4, 0.15 M NaCl, 0.005% Surfactant P20 (BR-1006-69, GE Healthcare)). Fc specific antibodies (Roche internal) were directly immobilized by amine coupling on a CM5 chip (GE Healthcare). The PDI-IL7 constructs were captured from supernatants for 120 s at 100 nM. […] Only the extracellular domains were fused to Fc domains, produced in HEK Expi Cells and purified by two-step column chromatography including affinity purification via Protein A followed by size-exclusion chromatography. A single injection of 800 nM hu IL 7Ra-IL2Rγ-Fc heterodimer was passed over the ligand at 30 µ1/min for 240 sec to record the association phase. The dissociation phase was monitored for 360 s and triggered by switching from the sample solution to HBS-EP+. The chip surface was regenerated after every cycle using one injection of 10 mM glycine pH 2 for 60 sec. Bulk refractive index differences were corrected for by subtracting the response obtained on the reference flow cell 1. The response units after the capture step and at the end of the association phase were recorded and a ratio of binding to capture was calculated. The single binding curves were fitted in the dissociation phase to obtain a koff for ease of comparison (Biacore Evaluation software, GE Healthcare).
The ratio of binding to capture was calculated and the dissociation phase was fitted to a single curve to support characterization of the off-rate. All N-glycosylation knock-out variants (single and triple mutants) have an off-rate similar to wild-type IL7 (Table 13).
This is another data set of the same source.

Assay [5] shares this target. Briefly: SPR (Example 2.4), captured via anti-P329G, receptor-Fc 2.34-300 nM, 1:1 fit.

B1: PD1-IL7wt (other)
light: DIVMTQSPDSLAVSLGERATINCKASESVDTSDNSFIHWYQQKPGQSPKLLIYRSSTLESGVPDRFSGSGSGTDFTLTISSLQAEDVAVYYCQQNYDVPWTFGQGTKVEIKRTVAAPSVFIFPPSDEQLKSGTASVVCLLNNFYPREAKVQWKVDNALQSGNSQESVTEQDSKDSTYSLSSTLTLSKADYEKHKVYACEVTHQGLSSPVTKSFNRGEC
heavy 1: EVQLLESGGGLVQPGGSLRLSCAASGFSFSSYTMSWVRQAPGKGLEWVATISGGGRDIYYPDSVKGRFTISRDNSKNTLYLQMNSLRAEDTAVYYCVLLTGRVYFALDSWGQGTLVTVSSASTKGPSVFPLAPSSKSTSGGTAALGCLVKDYFPEPVTVSWNSGALTSGVHTFPAVLQSSGLYSLSSVVTVPSSSLGTQTYICNVNHKPSNTKVDKKVEPKSCDKTHTCPPCPAPEAAGGPSVFLFPPKPKDTLMISRTPEVTCVVVDVSHEDPEVKFNWYVDGVEVHNAKTKPREEQYNSTYRVVSVLTVLHQDWLNGKEYKCKVSNKALGAPIEKTISKAKGQPREPQVCTLPPSRDELTKNQVSLSCAVKGFYPSDIAVEWESNGQPENNYKTTPPVLDSDGSFFLVSKLTVDKSRWQQGNVFSCSVMHEALHNHYTQKSLSLSPGK
heavy 2: EVQLLESGGGLVQPGGSLRLSCAASGFSFSSYTMSWVRQAPGKGLEWVATISGGGRDIYYPDSVKGRFTISRDNSKNTLYLQMNSLRAEDTAVYYCVLLTGRVYFALDSWGQGTLVTVSSASTKGPSVFPLAPSSKSTSGGTAALGCLVKDYFPEPVTVSWNSGALTSGVHTFPAVLQSSGLYSLSSVVTVPSSSLGTQTYICNVNHKPSNTKVDKKV[human IgG1 Fc with changes left out]GGGGSGGGGSGGGGSDCDIEGKDGKQYESVLMVSIDQLLDSMKEIGSNCLNNEFNFFKRHICDANKEGMFLFRAARKLRQFLKMNSTGDFDLHLLKVSEGTTILLNCTGQVKGRKPAALGEAQPTKSLEENKSLKEQKKLNDLCFLKRLLQEIKTCWNKILMGTKEH
notes: also called PDI-IL7wt; PD1-ILwt
For the molecule B1, in assay [1], the “EC50 [PD1+]/ EC50[PD1-IL7wt]” value came to 1 fold, the “STAT5-P AUC PD1+” value is 139 and the “STAT5-P AUC PD1 blocked” value was 106. Moreover, in assay [2], the “EC50 [PD1blocked]/ EC50 [PD1+]” value amounted to 2.1 fold. The koff in assay [3] came to 0.000446 s⁻¹. This molecule also registered a koff in assay [4] of 0.000446 s⁻¹. In assay [5], this molecule registered a Kd of 0.567 nM, a koff of 0.000218 s⁻¹ and a kon of 389000 M⁻¹ s⁻¹.

B2: PD1-IL7-VAR18 (K81E) (other)
light: DIVMTQSPDSLAVSLGERATINCKASESVDTSDNSFIHWYQQKPGQSPKLLIYRSSTLESGVPDRFSGSGSGTDFTLTISSLQAEDVAVYYCQQNYDVPWTFGQGTKVEIKRTVAAPSVFIFPPSDEQLKSGTASVVCLLNNFYPREAKVQWKVDNALQSGNSQESVTEQDSKDSTYSLSSTLTLSKADYEKHKVYACEVTHQGLSSPVTKSFNRGEC
heavy 1: EVQLLESGGGLVQPGGSLRLSCAASGFSFSSYTMSWVRQAPGKGLEWVATISGGGRDIYYPDSVKGRFTISRDNSKNTLYLQMNSLRAEDTAVYYCVLLTGRVYFALDSWGQGTLVTVSSASTKGPSVFPLAPSSKSTSGGTAALGCLVKDYFPEPVTVSWNSGALTSGVHTFPAVLQSSGLYSLSSVVTVPSSSLGTQTYICNVNHKPSNTKVDKKVEPKSCDKTHTCPPCPAPEAAGGPSVFLFPPKPKDTLMISRTPEVTCVVVDVSHEDPEVKFNWYVDGVEVHNAKTKPREEQYNSTYRVVSVLTVLHQDWLNGKEYKCKVSNKALGAPIEKTISKAKGQPREPQVCTLPPSRDELTKNQVSLSCAVKGFYPSDIAVEWESNGQPENNYKTTPPVLDSDGSFFLVSKLTVDKSRWQQGNVFSCSVMHEALHNHYTQKSLSLSPGK
heavy 2: EVQLLESGGGLVQPGGSLRLSCAASGFSFSSYTMSWVRQAPGKGLEWVATISGGGRDIYYPDSVKGRFTISRDNSKNTLYLQMNSLRAEDTAVYYCVLLTGRVYFALDSWGQGTLVTVSSASTKGPSVFPLAPSSKSTSGGTAALGCLVKDYFPEPVTVSWNSGALTSGVHTFPAVLQSSGLYSLSSVVTVPSSSLGTQTYICNVNHKPSNTKVDKKV[human IgG1 Fc with changes left out]GGGGSGGGGSGGGGSDCDIEGKDGKQYESVLMVSIDQLLDSMKEIGSNCLNNEFNFFKRHICDANKEGMFLFRAARKLRQFLKMNSTGDFDLHLLEVSEGTTILLNCTGQVKGRKPAALGEAQPTKSLEENKSLKEQKKLNDLCFLKRLLQEIKTCWNKILMGTKEH
notes: Format as m1; IL-7 with K81E; also called PD1-IL7 -K81E (Var18); PD1-IL7v variant 18
B2: in assay [1], the “EC50 [PD1+]/ EC50[PD1-IL7wt]” value came out at 8.3 fold, the “STAT5-P AUC PD1+” value is 80.8 and the “STAT5-P AUC PD1 blocked” value is 34.3. Besides, the “EC50 [PD1blocked]/ EC50 [PD1+]” value in assay [2] stood at 22.8 fold. In assay [3], this molecule displayed a koff of 0.00081 s⁻¹. In assay [5], this molecule displayed a Kd of 1.44 nM, a koff of 0.000563 s⁻¹ and a kon of 392000 M⁻¹ s⁻¹.

B3: PD1-IL7-VAR21 (G85E) (other)
light: DIVMTQSPDSLAVSLGERATINCKASESVDTSDNSFIHWYQQKPGQSPKLLIYRSSTLESGVPDRFSGSGSGTDFTLTISSLQAEDVAVYYCQQNYDVPWTFGQGTKVEIKRTVAAPSVFIFPPSDEQLKSGTASVVCLLNNFYPREAKVQWKVDNALQSGNSQESVTEQDSKDSTYSLSSTLTLSKADYEKHKVYACEVTHQGLSSPVTKSFNRGEC
heavy 1: EVQLLESGGGLVQPGGSLRLSCAASGFSFSSYTMSWVRQAPGKGLEWVATISGGGRDIYYPDSVKGRFTISRDNSKNTLYLQMNSLRAEDTAVYYCVLLTGRVYFALDSWGQGTLVTVSSASTKGPSVFPLAPSSKSTSGGTAALGCLVKDYFPEPVTVSWNSGALTSGVHTFPAVLQSSGLYSLSSVVTVPSSSLGTQTYICNVNHKPSNTKVDKKVEPKSCDKTHTCPPCPAPEAAGGPSVFLFPPKPKDTLMISRTPEVTCVVVDVSHEDPEVKFNWYVDGVEVHNAKTKPREEQYNSTYRVVSVLTVLHQDWLNGKEYKCKVSNKALGAPIEKTISKAKGQPREPQVCTLPPSRDELTKNQVSLSCAVKGFYPSDIAVEWESNGQPENNYKTTPPVLDSDGSFFLVSKLTVDKSRWQQGNVFSCSVMHEALHNHYTQKSLSLSPGK
heavy 2: EVQLLESGGGLVQPGGSLRLSCAASGFSFSSYTMSWVRQAPGKGLEWVATISGGGRDIYYPDSVKGRFTISRDNSKNTLYLQMNSLRAEDTAVYYCVLLTGRVYFALDSWGQGTLVTVSSASTKGPSVFPLAPSSKSTSGGTAALGCLVKDYFPEPVTVSWNSGALTSGVHTFPAVLQSSGLYSLSSVVTVPSSSLGTQTYICNVNHKPSNTKVDKKV[human IgG1 Fc with changes left out]GGGGSGGGGSGGGGSDCDIEGKDGKQYESVLMVSIDQLLDSMKEIGSNCLNNEFNFFKRHICDANKEGMFLFRAARKLRQFLKMNSTGDFDLHLLKVSEETTILLNCTGQVKGRKPAALGEAQPTKSLEENKSLKEQKKLNDLCFLKRLLQEIKTCWNKILMGTKEH
notes: Format as m1; IL-7 with G85E; also called PD1-IL7 -G85E (Var21); PD1-IL7v variant 21
As to B3, in assay [1], the “EC50 [PD1+]/ EC50[PD1-IL7wt]” value stood at 9.6 fold, the “STAT5-P AUC PD1+” value is 71.9 and the “STAT5-P AUC PD1 blocked” value turned out to be 24.5. Further, the “EC50 [PD1blocked]/ EC50 [PD1+]” value in assay [2] turned out to be 35.7 fold. In assay [3], this molecule yielded a koff of 0.0049 s⁻¹. Further, in assay [5], the equilibrium dissociation constant (Kd) came to 5.36 nM, the koff is 0.00267 s⁻¹ and the kon came out at 504000 M⁻¹ s⁻¹.
